# The other results are listed elsewhere or left out.
# B1: GS13846A-bth-444-19-444 (Bacteroides thetaiotaomicron) (protein)
# chain: SCENEFDVSDKADSLISVTVNTLNNQAAYNVGETAQAELWIQRGGLKDASGKVQFVVDPLLLDSLNQEDKTNYELLPENCYEMTNTEFTVDKNELCGYITYHPEKILALSAYNETKYVLPLRLISNDLAINPARNTSFLAFTILEPIVHISNAGVYNINPDLTSTMDIQIGVPFTNKWDILCNLTEDLSLIDEYNQINKVNFTLLPENAYTAPESVTLQEGVSQITASYQLKNNLVPGNYILPIKIGSITASQGGVPNNSLVIDEESNVLFCIVKEGNKINKSGWEVIECSSEHAGNEATYMIDDNESTYWHCKFKNEAGSSVPPFHFIIDMKKEITIAQIDLLNRGDGAANNIKWVEFYASNNNSEWDKIGAGDFNDEGTRATFRYYVKSTKARYLKLIIPEGYGNNCPPAAIRELTVYGLEGNN
# Experiments:
# Test in all cases: glycan array binding signal (z-score within array); higher = stronger binding
# Settings in all cases: glycan notation: IUPAC condensed, linker removed
# [1] = molecular target: Neu5Ac(a2-3)Gal(b1-3)[Fuc(a1-4)]GlcNAc
# How it was run: (§1)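 The Consortium for Functional Glycomics database supplied 3228 glycan arrays, of which those lacking an available protein sequence were dropped. The binding signal, a within-array Z-score, was averaged across arrays of the same protein sequence and across linkers. Negative scores can be read as non-binding.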
# [2] = molecular target: Neu5Ac(a2-3)Gal(b1-3)[Fuc(a1-4)]GlcNAc(b1-3)Gal(b1-3)[Fuc(a1-4)]GlcNAc
# How it was run: as §1
# [3] = molecular target: Neu5Ac(a2-3)Gal(b1-3)[Fuc(a1-4)]GlcNAc(b1-3)Gal(b1-4)[Fuc(a1-3)]GlcNAc
# How it was run: as §1
# [4] = molecular target: Neu5Ac(a2-3)Gal(b1-3)[GlcNAc(b1-6)]GalNAc
# How it was run: as §1
# [5] = molecular target: Neu5Ac(a2-3)Gal(b1-3)[Neu5Ac(a2-6)]GalNAc
# How it was run: as §1
# [6] = molecular target: Neu5Ac(a2-3)Gal(b1-3)[Neu5Ac(a2-6)]GlcNAc(b1-3)[Fuc(a1-3)[Gal(b1-4)]GlcNAc(b1-6)]Gal(b1-4)Glc
# How it was run: as §1
# [7] = molecular target: Neu5Ac(a2-3)Gal(b1-3)]Neu5Ac(a2-3)Gal(b1-4)]GlcNAc
# How it was run: as §1
# Neu5Ac(a2-3)Gal(b1-4)Glc = molecular target: Neu5Ac(a2-3)Gal(b1-4)Glc
# How it was run: as §1
# [8] = molecular target: Neu5Ac(a2-3)Gal(b1-4)GlcNAc
# How it was run: as §1
# [9] = molecular target: Neu5Ac(a2-3)Gal(b1-4)GlcNAc(b1-2)Man
# How it was run: as §1
# [10] = molecular target: Neu5Ac(a2-3)Gal(b1-4)GlcNAc(b1-2)Man(a1-3)[GlcNAc(b1-4)][Neu5Ac(a2-3)Gal(b1-4)GlcNAc(b1-2)Man(a1-6)]Man(b1-4)GlcNAc(b1-4)GlcNAc
# How it was run: as §1
# [11] = molecular target: Neu5Ac(a2-3)Gal(b1-4)GlcNAc(b1-2)Man(a1-3)[Neu5Ac(a2-3)Gal(b1-4)GlcNAc(b1-2)Man(a1-6)]Man(b1-4)GlcNAc(b1-4)GlcNAc
# How it was run: as §1
# [12] = molecular target: Neu5Ac(a2-3)Gal(b1-4)GlcNAc(b1-2)Man(a1-3)[Neu5Ac(a2-3)Gal(b1-4)GlcNAc(b1-2)Man(a1-6)]Man(b1-4)GlcNAc(b1-4)[Fuc(a1-6)]GlcNAc
# How it was run: as §1
# [13] = molecular target: Neu5Ac(a2-3)Gal(b1-4)GlcNAc(b1-2)Man(a1-3)[Neu5Ac(a2-6)Gal(b1-4)GlcNAc(b1-2)Man(a1-6)]Man(b1-4)GlcNAc(b1-4)GlcNAc
# How it was run: as §1
# [14] = molecular target: Neu5Ac(a2-3)Gal(b1-4)GlcNAc(b1-2)[Neu5Ac(a2-3)Gal(b1-4)GlcNAc(b1-4)]Man(a1-3)[GlcNAc(b1-4)][Neu5Ac(a2-3)Gal(b1-4)GlcNAc(b1-2)[Neu5Ac(a2-3)Gal(b1-4)GlcNAc(b1-6)]Man(a1-6)]Man(b1-4)GlcNAc(b1-4)GlcNAc
# How it was run: as §1
# [15] = molecular target: Neu5Ac(a2-3)Gal(b1-4)GlcNAc(b1-2)[Neu5Ac(a2-3)Gal(b1-4)GlcNAc(b1-4)]Man(a1-3)[GlcNAc(b1-4)][Neu5Ac(a2-3)Gal(b1-4)GlcNAc(b1-4)Man(a1-6)]Man(b1-4)GlcNAc(b1-4)GlcNAc
# How it was run: as §1
# [16] = molecular target: Neu5Ac(a2-3)Gal(b1-4)GlcNAc(b1-2)[Neu5Ac(a2-3)Gal(b1-4)GlcNAc(b1-6)]Man(a1-6)[Neu5Ac(a2-3)Gal(b1-4)GlcNAc(b1-2)Man(a1-3)]Man(b1-4)GlcNAc(b1-4)GlcNAc
# How it was run: as §1
# [17] = molecular target: Neu5Ac(a2-3)Gal(b1-4)GlcNAc(b1-2)[Neu5Ac(a2-3)Gal(b1-4)GlcNAc(b1-6)]Man(a1-6)[Neu5Ac(a2-3)Gal(b1-4)GlcNAc(b1-2)Man(a1-3)][GlcNAc(b1-4)]Man(b1-4)GlcNAc(b1-4)GlcNAc
# How it was run: as §1
# [18] = molecular target: Neu5Ac(a2-3)Gal(b1-4)GlcNAc(b1-3)Gal
# How it was run: as §1
# [19] = molecular target: Neu5Ac(a2-3)Gal(b1-4)GlcNAc(b1-3)Gal(b1-3)GlcNAc
# How it was run: as §1
# [20] = molecular target: Neu5Ac(a2-3)Gal(b1-4)GlcNAc(b1-3)Gal(b1-4)GlcNAc
# How it was run: as §1
# [21] = molecular target: Neu5Ac(a2-3)Gal(b1-4)GlcNAc(b1-3)Gal(b1-4)GlcNAc(b1-2)Man(a1-3)[Neu5Ac(a2-3)Gal(b1-4)GlcNAc(b1-3)Gal(b1-4)GlcNAc(b1-2)Man(a1-6)]Man(b1-4)GlcNAc(b1-4)GlcNAc
# How it was run: as §1
# [22] = molecular target: Neu5Ac(a2-3)Gal(b1-4)GlcNAc(b1-3)Gal(b1-4)GlcNAc(b1-3)Gal(b1-4)GlcNAc
# How it was run: as §1
# [23] = molecular target: Neu5Ac(a2-3)Gal(b1-4)GlcNAc(b1-3)Gal(b1-4)GlcNAc(b1-3)Gal(b1-4)GlcNAc(b1-2)Man(a1-3)[Neu5Ac(a2-3)Gal(b1-4)GlcNAc(b1-3)Gal(b1-4)GlcNAc(b1-3)Gal(b1-4)GlcNAc(b1-2)Man(a1-6)]GalNAc
# How it was run: as §1
# [24] = molecular target: Neu5Ac(a2-3)Gal(b1-4)GlcNAc(b1-3)Gal(b1-4)GlcNAc(b1-3)GalNAc
# How it was run: as §1
# [25] = molecular target: Neu5Ac(a2-3)Gal(b1-4)GlcNAc(b1-3)Gal(b1-4)GlcNAc(b1-3)[Neu5Ac(a2-3)Gal(b1-4)GlcNAc(b1-3)Gal(b1-4)GlcNAc(b1-6)]GalNAc
# How it was run: as §1
# [26] = molecular target: Neu5Ac(a2-3)Gal(b1-4)GlcNAc(b1-3)Gal(b1-4)GlcNAc(b1-6)[Gal(b1-3)]GalNAc
# How it was run: as §1
# [27] = molecular target: Neu5Ac(a2-3)Gal(b1-4)GlcNAc(b1-3)Gal(b1-4)[Fuc(a1-3)]GlcNAc
# How it was run: as §1
# [28] = molecular target: Neu5Ac(a2-3)Gal(b1-4)GlcNAc(b1-3)GalNAc
# How it was run: as §1
# [29] = molecular target: Neu5Ac(a2-3)Gal(b1-4)GlcNAc(b1-3)[Neu5Ac(a2-3)Gal(b1-4)GlcNAc(b1-6)]GalNAc
# How it was run: as §1
# [30] = molecular target: Neu5Ac(a2-3)Gal(b1-4)GlcNAc(b1-6)GalNAc
# How it was run: as §1
# [31] = molecular target: Neu5Ac(a2-3)Gal(b1-4)GlcNAc(b1-6)[Gal(b1-3)]GalNAc
# How it was run: as §1
# [32] = molecular target: Neu5Ac(a2-3)Gal(b1-4)GlcNAc(b1-6)[Neu5Ac(a2-3)Gal(b1-3)]GalNAc
# How it was run: as §1
# [33] = molecular target: Neu5Ac(a2-3)Gal(b1-4)GlcNAc6S
# How it was run: as §1
# [34] = molecular target: Neu5Ac(a2-3)Gal(b1-4)[Fuc(a1-3)]GlcNAc
# How it was run: as §1
# [35] = molecular target: Neu5Ac(a2-3)Gal(b1-4)[Fuc(a1-3)]GlcNAc(b1-2)Man
# How it was run: as §1
# [36] = molecular target: Neu5Ac(a2-3)Gal(b1-4)[Fuc(a1-3)]GlcNAc(b1-3)Gal
# How it was run: as §1
# [37] = molecular target: Neu5Ac(a2-3)Gal(b1-4)[Fuc(a1-3)]GlcNAc(b1-3)Gal(b1-4)GlcNAc
# How it was run: as §1
# [38] = molecular target: Neu5Ac(a2-3)Gal(b1-4)[Fuc(a1-3)]GlcNAc(b1-3)Gal(b1-4)[Fuc(a1-3)]GlcNAc(b1-3)Gal(b1-4)[Fuc(a1-3)]GlcNAc
# How it was run: as §1
# [39] = molecular target: Neu5Ac(a2-3)Gal(b1-4)[Fuc(a1-3)]GlcNAc(b1-3)GalNAc
# How it was run: as §1
# [40] = molecular target: Neu5Ac(a2-3)Gal(b1-4)[Fuc(a1-3)]GlcNAc(b1-6)[Gal(b1-3)]GalNAc
# How it was run: as §1
# [41] = molecular target: Neu5Ac(a2-3)Gal(b1-4)[Fuc(a1-3)]GlcNAc(b1-6)[Neu5Ac(a2-3)Gal(b1-3)]GalNAc
# How it was run: as §1
# [42] = molecular target: Neu5Ac(a2-3)Gal(b1-4)[Fuc(a1-3)]GlcNAc6S
# How it was run: as §1
# [43] = molecular target: Neu5Ac(a2-3)Gal6S(b1-4)GlcNAc
# How it was run: as §1
# [44] = molecular target: Neu5Ac(a2-3)Gal6S(b1-4)[Fuc(a1-3)]GlcNAc
# How it was run: as §1
binder,measurement,setting,value
B1,glycan array binding signal (z-score),[1],-0.154
same,glycan array binding signal (z-score),[2],0.023
same,glycan array binding signal (z-score),[3],-0.006
same,glycan array binding signal (z-score),[4],-0.43
same,glycan array binding signal (z-score),[5],-0.37
same,glycan array binding signal (z-score),[6],0.12
same,glycan array binding signal (z-score),[7],-0.307
same,glycan array binding signal (z-score),Neu5Ac(a2-3)Gal(b1-4)Glc,-0.224
same,glycan array binding signal (z-score),[8],-0.177
same,glycan array binding signal (z-score),[9],-0.218
same,glycan array binding signal (z-score),[10],-0.338
same,glycan array binding signal (z-score),[11],-0.122
same,glycan array binding signal (z-score),[12],-0.407
same,glycan array binding signal (z-score),[13],-0.236
same,glycan array binding signal (z-score),[14],-0.35
same,glycan array binding signal (z-score),[15],-0.332
same,glycan array binding signal (z-score),[16],-0.343
same,glycan array binding signal (z-score),[17],-0.314
same,glycan array binding signal (z-score),[18],-0.115
same,glycan array binding signal (z-score),[19],-0.365
same,glycan array binding signal (z-score),[20],-0.273
same,glycan array binding signal (z-score),[21],0.171
same,glycan array binding signal (z-score),[22],0.067
same,glycan array binding signal (z-score),[23],-0.089
same,glycan array binding signal (z-score),[24],-0.353
same,glycan array binding signal (z-score),[25],-0.336
same,glycan array binding signal (z-score),[26],0.701
same,glycan array binding signal (z-score),[27],-0.159
same,glycan array binding signal (z-score),[28],-0.358
same,glycan array binding signal (z-score),[29],-0.202
same,glycan array binding signal (z-score),[30],0.068
same,glycan array binding signal (z-score),[31],-0.363
same,glycan array binding signal (z-score),[32],-0.359
same,glycan array binding signal (z-score),[33],-0.323
same,glycan array binding signal (z-score),[34],-0.179
same,glycan array binding signal (z-score),[35],-0.335
same,glycan array binding signal (z-score),[36],-0.359
same,glycan array binding signal (z-score),[37],-0.205
same,glycan array binding signal (z-score),[38],-0.316
same,glycan array binding signal (z-score),[39],0.234
same,glycan array binding signal (z-score),[40],1.34
same,glycan array binding signal (z-score),[41],0.385
same,glycan array binding signal (z-score),[42],-0.062
same,glycan array binding signal (z-score),[43],-0.129
same,glycan array binding signal (z-score),[44],-0.421
